# In the RNAGym collection of RNA variant scans (doi:10.7554/elife.90254):
# The source gives no read counts; variants with many changes may rest on few reads.
# B1: LINE1-full (parent)
# chain: UACGUAGGUGGUUUUCCCCUGAUAGUGCUAAGGGGGCCUGGAAGUUUGGACUGGGCAGAGCUCAACACAGCGUGGCAAAGUGGCUGUGGCUAGACUGCCUCUCUGGAUUCCUCGUCACUCAGCAGGGCAUCUCUGAGAGAAAUGCC
# Variants of: B1
# Experiment: self-cleavage, relative activity (ratio to wild type); higher = more cleavage; in vitro, sequencing; the parent is a self-cleaving ribozyme
row,Variant,self-cleavage
1,A50G U115C A121U,0.79
2,A79G A107G A129U,0.16
3,A79U U96A C110U,0.07
4,U12C U91C U109A A138U,1.29
5,U26A A77U A140U,1.04
6,U112A U132C A136G A142G,1.65
7,U12C U26C U85A,0.43
8,U29G A129G A141U,1.09
9,U9A A30C A42G,1.62
10,G60A G106U U115C A141C,0
11,A79G C118A U130C,1.08
12,U23C A31G U104A U115A,1.27
13,U14C U23C U46C U96A,0.15
14,A22G G41A A50U A57U,0.25
15,U23C A67G A124G A140G,0
16,U26A A77G A79G,1.16
17,A22G A43U U73C G89A U112C,0
18,A22G U52G U102A,0.97
19,A22C U85A G105C,0.06
20,A77G G88A A117C A124U A141G,0.06
21,A69U C118U A141G,0.03
22,A30U A43U C103U U109A A142C,1.11
23,A42G A92G U130A,0.06
24,A42G U87C U134C U143C,0

row,Variant,self-cleavage
1,A117G C133U A138G,1.37
2,U15C U102C U115G A121U,2.45
3,C38G U39C A129U,1.59
4,U9C A77G A107U,2.46
5,A78G U115A C116A,1
6,A2G U9C U20C A65G U87G,0
7,A67G A69U A121U,0
8,U96C U100C A117U,0.36
9,U14C U87G A121U,0.21
10,U20A U45C A117U,1.26
11,A2C A67G A94G U134C,0.27
12,U9C U20C C51U U87G U96C,0.39
13,U15C A79U G82A A94G C95A U102C C131U,0.12
14,U39C A79G U119C A142G,0.92
15,U13C U20G A31U C37U,1.4
16,A6U G44A U45C C90G U104C,0.14
17,U14C A31G A94U A124C,0.48
18,U87A A121G A138G,0.18
19,C16A A30U A59G A79G A107G A124G,0
20,G72U U102A U115C,1.71
21,U39C U45C A65G U96A,0
22,A31G A64G U96A G127A,0.02
23,U15A C66U U115C,0.02
24,A50G U73A A138U,0.67

row,Variant,self-cleavage
1,U45C U73A C110U A117G U130C A141G,1.93
2,A65U C71G A78G A138G,0.06
3,U13A U45C A77G U102C,1.23
4,U62A U115C A129G,0.07
5,G32A U134C U143C,1.48
6,U104C C110U U119A,1.53
7,A24G A42G U46C G70A A77G A121G U143A,1.08
8,U12A U46C A50G G105A G122A,0.8
9,U12G A43G A142G,0
10,A57G G86A U108C A121C A140G,0.07
11,G8A A31G G36A,1.17
12,A22G A69G U87A U119C,0.04
13,U14A U20C A77U A79G U108C,1.02
14,U13A U29A A67G,0.43
15,U73C U85A C101A,0.2
16,G53A U85A U91C,0.1
17,U20A A30C A92G U102A,0
18,U23C U29C A94G,0
19,U1C U9A U100C,0.69
20,U13C A50G A136U A140G,1.24
21,U5C G72A U119A,1.34
22,A42G A107G U130C,0.42
23,A6G U45C A77U U100C U134C,1.53
24,C19U A31G U119C,0.54

row,Variant,self-cleavage
1,U26C G36U U112C,1.14
2,U9C A79G A94G,0.23
3,A64U U87A U96C,0.03
4,A24G G32U U39A U81A,1.28
5,C18U U96C C101U,0.17
6,A124U U132A U134A,1.91
7,U26A A30G A94G,0
8,U14C U39A G44A A69G G86U U130C,0.05
9,A67G A78G U85A,0.14
10,U14C A57G A64G U85G A138U,0
11,C38U U108C U130C,1.37
12,U9C U104C G135U,0.99
13,U12G A79G A138G,2.3
14,G49U A67U A141G A142G,0.05
15,U12A C99U U104C A140U,1.55
16,U14C U29A G35U U85A,0.1
17,A65U U87A U104C G114A,0.02
18,U13C A31U A77G U104A A129U C145U,1.73
19,C51U G55A U115C U132C,0.29
20,U15C G40A A124G,0.66
21,A2G A6G U46C,0
22,G10A G34A U52C A141G,1
23,A57U U96C U132C,0.04
24,U13C A42U U47C U102C C128U A136G,1.16

row,Variant,self-cleavage
1,U23C U46C U81C G126A,1.53
2,U13C A78G U100C,0.98
3,U12G C19U A124G,0.16
4,C19A U39C G86A U109A,0
5,G54U U81A U119C U130C,2.14
6,A24G G35A A69G G127A U134G,0.31
7,A22G U39C A43G A59G A79U,0
8,U87A A124C U134C,0.07
9,U20A A107G U112C,0.79
10,U39A A57G A77U U115C,0.71
11,G33A G60U U132C,0.12
12,U20C C98U U100C U143C,1.36
13,U9G A42U C84U,0.06
14,U20C U112A G114A U143A,1.13
15,U15C U20C U39A U96C U115C,0.17
16,U46C A79C U104A,1.84
17,U14C G36U U109A,1.05
18,A6G A69U A78U A142G,0.22
19,U29C A69G A140G,0.25
20,U13C U73C A142G,0.41
21,C28U A59U A141G,0.52
22,A42G A64U G89A,0.05
23,U47C U119A A140G,1.32
24,A67G U73A C113U A140G,0.19

row,Variant,self-cleavage
1,U1C A22G G72A U85A A141G,0.1
2,A59G G82A U108C,0.05
3,A30G A50G C120U,0.95
4,U85A A121U A138G,0.09
5,U14C U81C U132C,1.25
6,U100C U112C U130A A138G,1.02
7,U9G U47C G114A,0.63
8,U20G A43G G53A,0.57
9,U9C U15C G82A U91A U104A,0.9
10,A59G A64G U134A,0.09
11,U13C U52A U87C A138G,0.32
12,G34U U73C U108G,1.38
13,G11A U108C U115A,2.18
14,U5C U112A A124U U130C U143A,1.58
15,U14C U102C U119A,0.37
16,A43G A121U C128A A136G,0.59
17,A65G U100C U102C A117C U143A,0
18,A6G A22G A43U U46C U85C U115C,0
19,A22G A117G U119C,0.71
20,U26C G34U A64U,0.45
21,U14C U15A A67U U109C,0
22,U5C U20G U115C,0.35
23,U5C A42G U62A A78G A140U,0.29
24,U13C U45C A117G A142G,1.53

row,Variant,self-cleavage
1,A31U A94G A141G A142G,0
2,C3U U52A G82A,1.3
3,U96C A129C U134C,0
4,A30G A94G U132C,0
5,U1A C19U A77U U85A A94G,0.27
6,C19U U102C U119G,1.08
7,U14C U81C U130C,2.21
8,A57G U108C U134C,2.63
9,U13A A57G A64G,0.63
10,U9A C99U A136G G137U,0.34
11,U45C A50G U102C U143A,0
12,U13A U14C A69G,0.7
13,U39C A50G U104A A136G,0.3
14,G40U A107G A142G U143C,1.46
15,U1C U15C A78G C98G U104C,0
16,U20C U87C U119A,0.16
17,U23A A94G A142G,1.17
18,U12G G53A U81C U112C,1.01
19,U1C A6C U12C A50G,0.43
20,U14G U47C A69G G86A C110U,0.1
21,A43U U81C A121C,1.34
22,U12G A22G U119C A142G,0.95
23,A2G A22G U62A U102C,0
